Experiment [1] concerns the target cytoplasmic FMRP-interacting protein 1 (CYFIP1), mouse, endogenous (mouse (endogenous in cortex)) (UniProt Q7TMB8). Put plainly: co-IP; CYFIP1 IP from RNase-treated mouse cortical lysates.
Experiment [2] has the same target. Put plainly: co-IP; mouse cortical lysates, endogenous proteins, no RNase; reverse IPs of the interactors (Figure 6B, S6) and CYFIP1 IP (Figure 6C, lane 2); rabbit and mouse IgGs as controls.
The target in experiment [3] is eIF4E, mouse, endogenous (mouse (endogenous in cortex)) (UniProt P63073). The experiment in a line: m7GTP chromatography; m7GTP chromatography on mouse cortical extracts; eIF4E and proteins associated with it isolated on the cap analogue.
The target in experiment [4] is T1, Caprin1, mouse, endogenous (mouse (endogenous in cortex)) (UniProt Q60865).
T1 sequence: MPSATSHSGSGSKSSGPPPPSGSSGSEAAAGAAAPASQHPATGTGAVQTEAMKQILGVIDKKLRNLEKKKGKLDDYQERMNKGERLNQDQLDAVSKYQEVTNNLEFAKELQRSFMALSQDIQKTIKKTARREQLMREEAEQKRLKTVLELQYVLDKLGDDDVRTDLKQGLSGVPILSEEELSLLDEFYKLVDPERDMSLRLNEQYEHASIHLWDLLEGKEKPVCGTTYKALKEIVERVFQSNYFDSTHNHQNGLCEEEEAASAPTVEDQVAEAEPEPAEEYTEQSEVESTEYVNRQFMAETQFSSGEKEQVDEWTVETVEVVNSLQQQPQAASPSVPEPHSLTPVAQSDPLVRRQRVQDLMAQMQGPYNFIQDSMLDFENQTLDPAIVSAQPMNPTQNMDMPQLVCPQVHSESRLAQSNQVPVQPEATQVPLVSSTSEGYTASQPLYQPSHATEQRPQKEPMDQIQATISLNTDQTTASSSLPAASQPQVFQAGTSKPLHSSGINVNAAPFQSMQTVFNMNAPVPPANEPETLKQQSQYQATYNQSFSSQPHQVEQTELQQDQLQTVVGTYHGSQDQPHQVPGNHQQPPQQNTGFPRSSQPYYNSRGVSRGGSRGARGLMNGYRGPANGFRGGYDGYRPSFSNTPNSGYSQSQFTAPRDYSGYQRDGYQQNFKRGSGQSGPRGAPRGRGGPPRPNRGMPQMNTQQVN
Put plainly: co-IP; mouse cortical lysates, endogenous proteins, no RNase; reverse IPs of the interactors (Figure 6B, S6) and CYFIP1 IP (Figure 6C, lane 2); rabbit and mouse IgGs as controls.

Chains of the proteins cited; added tags and fusions are not shown.
UniProt Q7TMB8: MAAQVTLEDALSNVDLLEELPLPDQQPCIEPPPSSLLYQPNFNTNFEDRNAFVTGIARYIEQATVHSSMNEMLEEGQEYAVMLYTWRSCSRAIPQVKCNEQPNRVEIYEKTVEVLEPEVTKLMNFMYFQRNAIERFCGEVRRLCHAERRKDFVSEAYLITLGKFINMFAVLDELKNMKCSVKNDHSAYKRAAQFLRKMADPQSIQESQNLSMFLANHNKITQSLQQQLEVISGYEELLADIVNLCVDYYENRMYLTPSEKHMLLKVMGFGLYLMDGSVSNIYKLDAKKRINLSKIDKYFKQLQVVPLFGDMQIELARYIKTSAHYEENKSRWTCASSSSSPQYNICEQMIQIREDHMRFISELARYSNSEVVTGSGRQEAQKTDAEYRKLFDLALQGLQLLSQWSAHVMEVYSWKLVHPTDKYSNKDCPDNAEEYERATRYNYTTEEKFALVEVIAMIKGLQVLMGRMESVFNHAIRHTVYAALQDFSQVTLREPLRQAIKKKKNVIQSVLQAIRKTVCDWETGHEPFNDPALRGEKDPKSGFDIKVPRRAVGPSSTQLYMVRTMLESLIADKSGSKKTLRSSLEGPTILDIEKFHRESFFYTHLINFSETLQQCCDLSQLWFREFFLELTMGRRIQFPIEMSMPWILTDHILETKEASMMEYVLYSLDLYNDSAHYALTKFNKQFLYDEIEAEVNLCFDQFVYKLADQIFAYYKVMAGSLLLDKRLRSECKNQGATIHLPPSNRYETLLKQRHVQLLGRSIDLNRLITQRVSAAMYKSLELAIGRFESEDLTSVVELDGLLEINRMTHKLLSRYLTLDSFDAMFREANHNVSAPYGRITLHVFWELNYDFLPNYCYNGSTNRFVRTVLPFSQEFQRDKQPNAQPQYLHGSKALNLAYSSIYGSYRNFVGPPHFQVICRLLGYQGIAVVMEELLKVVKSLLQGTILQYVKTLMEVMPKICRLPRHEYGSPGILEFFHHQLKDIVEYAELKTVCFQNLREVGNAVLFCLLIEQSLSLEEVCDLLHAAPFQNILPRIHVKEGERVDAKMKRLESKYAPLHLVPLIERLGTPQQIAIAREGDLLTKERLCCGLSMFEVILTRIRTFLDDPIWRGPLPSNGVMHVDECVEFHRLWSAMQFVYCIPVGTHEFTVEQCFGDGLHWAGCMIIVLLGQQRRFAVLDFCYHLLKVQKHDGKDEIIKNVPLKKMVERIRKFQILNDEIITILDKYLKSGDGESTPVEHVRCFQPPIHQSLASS
UniProt P63073: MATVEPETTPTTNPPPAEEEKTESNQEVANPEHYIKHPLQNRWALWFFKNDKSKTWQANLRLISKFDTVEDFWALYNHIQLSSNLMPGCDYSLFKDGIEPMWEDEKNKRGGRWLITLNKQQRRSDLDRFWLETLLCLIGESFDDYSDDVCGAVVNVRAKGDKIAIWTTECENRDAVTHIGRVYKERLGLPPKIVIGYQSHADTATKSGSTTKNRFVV
UniProt O08788: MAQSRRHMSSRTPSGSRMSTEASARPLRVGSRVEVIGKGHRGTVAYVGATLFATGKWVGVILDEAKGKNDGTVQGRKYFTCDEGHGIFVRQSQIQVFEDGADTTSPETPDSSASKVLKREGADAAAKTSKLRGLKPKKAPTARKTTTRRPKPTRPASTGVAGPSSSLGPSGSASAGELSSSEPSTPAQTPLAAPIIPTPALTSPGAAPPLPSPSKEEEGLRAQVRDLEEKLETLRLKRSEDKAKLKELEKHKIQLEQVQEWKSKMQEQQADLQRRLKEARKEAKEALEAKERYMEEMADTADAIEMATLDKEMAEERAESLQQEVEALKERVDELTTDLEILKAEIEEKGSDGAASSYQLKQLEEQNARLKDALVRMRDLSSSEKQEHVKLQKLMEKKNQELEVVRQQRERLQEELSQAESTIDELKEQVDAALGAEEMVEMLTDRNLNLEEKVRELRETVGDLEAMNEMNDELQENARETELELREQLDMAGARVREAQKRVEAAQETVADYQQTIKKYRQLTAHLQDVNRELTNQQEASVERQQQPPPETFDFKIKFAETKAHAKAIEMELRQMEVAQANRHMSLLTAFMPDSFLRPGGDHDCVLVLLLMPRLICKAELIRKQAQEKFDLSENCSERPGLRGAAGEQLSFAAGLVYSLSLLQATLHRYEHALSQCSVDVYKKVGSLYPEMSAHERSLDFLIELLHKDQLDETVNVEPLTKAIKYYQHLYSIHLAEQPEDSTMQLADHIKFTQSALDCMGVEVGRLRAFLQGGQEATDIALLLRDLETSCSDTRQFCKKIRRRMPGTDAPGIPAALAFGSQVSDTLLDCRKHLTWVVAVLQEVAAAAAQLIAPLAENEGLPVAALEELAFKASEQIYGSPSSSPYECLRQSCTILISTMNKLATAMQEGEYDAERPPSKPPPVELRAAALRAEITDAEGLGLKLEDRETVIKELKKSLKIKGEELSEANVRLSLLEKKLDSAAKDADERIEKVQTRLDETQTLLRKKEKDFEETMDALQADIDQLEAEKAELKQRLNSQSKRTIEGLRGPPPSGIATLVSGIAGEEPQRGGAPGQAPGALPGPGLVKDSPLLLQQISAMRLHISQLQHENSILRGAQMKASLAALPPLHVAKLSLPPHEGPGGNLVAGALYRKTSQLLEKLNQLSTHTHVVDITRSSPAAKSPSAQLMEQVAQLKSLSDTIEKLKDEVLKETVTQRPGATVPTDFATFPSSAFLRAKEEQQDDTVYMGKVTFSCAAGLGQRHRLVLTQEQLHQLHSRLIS
UniProt P29341: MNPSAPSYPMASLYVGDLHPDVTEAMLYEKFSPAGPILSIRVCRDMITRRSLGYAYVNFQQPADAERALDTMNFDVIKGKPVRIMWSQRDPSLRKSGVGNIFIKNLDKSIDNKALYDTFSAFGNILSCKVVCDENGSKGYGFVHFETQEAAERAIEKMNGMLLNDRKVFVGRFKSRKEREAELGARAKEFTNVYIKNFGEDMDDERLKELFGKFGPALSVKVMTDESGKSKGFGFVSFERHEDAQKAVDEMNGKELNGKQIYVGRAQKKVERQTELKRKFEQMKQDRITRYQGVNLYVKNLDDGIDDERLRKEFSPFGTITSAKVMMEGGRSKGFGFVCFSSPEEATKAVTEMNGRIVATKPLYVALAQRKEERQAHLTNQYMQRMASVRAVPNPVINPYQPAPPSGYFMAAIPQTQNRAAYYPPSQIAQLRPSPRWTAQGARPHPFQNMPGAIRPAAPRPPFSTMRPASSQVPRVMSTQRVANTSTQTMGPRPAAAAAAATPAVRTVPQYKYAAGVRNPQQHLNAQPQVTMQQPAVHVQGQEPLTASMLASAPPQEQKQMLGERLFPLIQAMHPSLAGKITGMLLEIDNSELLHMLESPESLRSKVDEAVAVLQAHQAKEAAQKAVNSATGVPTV

Experiment [5] has as its target DCTN1, mouse, endogenous (mouse (endogenous in cortex)) (UniProt O08788). The experiment is described as above.
Experiment [6] deals with PABP1, mouse, endogenous (mouse (endogenous in cortex)) (UniProt P29341). Described as above.
For experiment [7], the target named is eIF4E, mouse, endogenous (mouse (endogenous in cortex)) (UniProt P63073). The experiment is described as above.
Experiment [8] addresses T2, NCKAP1, mouse, endogenous (mouse (endogenous in cortex)) (UniProt P28660).
T2 sequence: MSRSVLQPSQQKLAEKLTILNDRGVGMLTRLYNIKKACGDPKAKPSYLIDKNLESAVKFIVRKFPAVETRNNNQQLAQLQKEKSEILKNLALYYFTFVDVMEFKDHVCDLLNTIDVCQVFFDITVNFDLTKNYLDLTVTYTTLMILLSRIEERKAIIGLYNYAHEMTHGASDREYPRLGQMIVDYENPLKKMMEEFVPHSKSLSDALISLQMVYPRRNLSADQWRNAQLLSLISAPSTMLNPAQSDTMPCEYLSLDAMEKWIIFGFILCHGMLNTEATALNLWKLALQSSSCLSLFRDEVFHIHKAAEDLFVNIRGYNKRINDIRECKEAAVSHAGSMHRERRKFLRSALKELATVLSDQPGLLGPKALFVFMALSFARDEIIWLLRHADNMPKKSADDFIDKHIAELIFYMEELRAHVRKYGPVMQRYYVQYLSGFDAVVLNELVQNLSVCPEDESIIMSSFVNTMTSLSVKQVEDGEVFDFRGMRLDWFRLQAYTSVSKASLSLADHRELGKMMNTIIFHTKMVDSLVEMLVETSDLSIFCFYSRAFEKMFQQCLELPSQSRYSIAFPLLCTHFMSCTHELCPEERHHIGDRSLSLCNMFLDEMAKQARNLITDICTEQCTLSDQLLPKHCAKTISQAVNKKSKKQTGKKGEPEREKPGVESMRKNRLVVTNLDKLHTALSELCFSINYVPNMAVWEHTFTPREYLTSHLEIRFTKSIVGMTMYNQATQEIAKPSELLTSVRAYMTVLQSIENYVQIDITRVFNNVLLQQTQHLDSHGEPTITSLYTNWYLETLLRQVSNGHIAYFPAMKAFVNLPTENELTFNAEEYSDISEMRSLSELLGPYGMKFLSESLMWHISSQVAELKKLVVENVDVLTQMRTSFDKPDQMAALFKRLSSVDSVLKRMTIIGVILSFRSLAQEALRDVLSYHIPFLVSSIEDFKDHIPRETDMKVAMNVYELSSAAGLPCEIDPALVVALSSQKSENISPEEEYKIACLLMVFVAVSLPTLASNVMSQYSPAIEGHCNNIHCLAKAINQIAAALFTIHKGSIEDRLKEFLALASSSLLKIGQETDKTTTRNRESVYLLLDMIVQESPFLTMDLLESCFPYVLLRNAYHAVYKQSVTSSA
Put plainly: co-IP; mouse cortical synaptoneurosomes, endogenous proteins; IP of CYFIP1, NCKAP1 or eIF4E, control IgGs; also after BDNF (100 ng/ml, 30 min) with/without NSC23766 (200 uM, 10 min pretreatment).

For experiment [9], the target named is eIF4E, mouse, endogenous (mouse (endogenous in cortex)) (UniProt P63073). The experiment is described as above.
For experiment [10], the target named is cytoplasmic FMRP-interacting protein 1 (CYFIP1), mouse, endogenous (mouse (endogenous in cortex)) (UniProt Q7TMB8). The experiment is described as above.

Results are given in words; binding and its absence hold for the method and conditions named. For some of these results: In cells and extracts the contact can be indirect. Some binding calls cover weakened binding; strength is not graded here.

The source of these data is article PMC3781321.

For the molecule “PABP1, mouse, endogenous (from UniProt P29341 1-636)”, the binding entry in experiment [1] and in experiment [2] was “binds” in each case.
For “cytoplasmic FMRP-interacting protein 1 (CYFIP1), mouse, endogenous (from UniProt Q7TMB8 1-1253)”, the binding entry in [3], in experiment [4], in experiment [5], in experiment [6], in experiment [7] and in experiment [8] was “binds” each time. The binding entry in [9] is reported as “binds”.
As to “DCTN1, mouse, endogenous (from UniProt O08788 1-1281)”, the binding entry in experiment [1] and in [2] was “binds” in each case.
Regarding “eIF4E, mouse, endogenous (from UniProt P63073 1-217)”, the binding result in experiment [1] is “binds”; in experiment [2], “binds”; in experiment [8], “no binding”; in experiment [10], “binds”.

B1: WAVE1, mouse, endogenous (protein, UniProt Q8R5H6 1-559)
chain: MPLVKRNIDPRHLCHTALPRGIKNELECVTNISLANIIRQLSSLSKYAEDIFGELFNEAHSFSFRVNSLQERVDRLSVSVTQLDPKEEELSLQDITMRKAFRSSTIQDQQLFDRKTLPIPLQETYDVCEQPPPLNILTPYRDDGKEGLKFYTNPSYFFDLWKEKMLQDTEDKRKEKRKQKQKNLDRPHEPEKVPRAPHDRRREWQKLAQGPELAEDDADLLHKHIEVANGPASHYETRPQTYVDHMDGSYSLSALPFSQMSELLTRAEERVLVRPHEPPPPPPMHGAGDAKPTPTCISSATGLIENRPQSPAAGRTPVFVSPTPPPPPPPLPSALSTSSLRASMTSTPPPPVPPPPPPPATALQAPAVPPPPAPLQIAPGVLHPAPPPIAPPLVQPSPPVARAAPVCETVPVHPLPQGEVQGLPPPPPPPPLPPPGIRPSSPVAVAALAHPPSGLHPAPSTAPGPHAPLMPPSPPSQVLPASEPKRHPSTLPVISDARSVLLEAIRKGIQLRKVEEQREQEAKHERIENDVATILSRRIAVEYSDSEDDSEFDEVDWLE
Turning to B1, the binding entry in experiment [10] is listed as “binds”.

B2: NCKAP1, mouse, endogenous (protein, UniProt P28660 1-1128)
chain: MSRSVLQPSQQKLAEKLTILNDRGVGMLTRLYNIKKACGDPKAKPSYLIDKNLESAVKFIVRKFPAVETRNNNQQLAQLQKEKSEILKNLALYYFTFVDVMEFKDHVCDLLNTIDVCQVFFDITVNFDLTKNYLDLTVTYTTLMILLSRIEERKAIIGLYNYAHEMTHGASDREYPRLGQMIVDYENPLKKMMEEFVPHSKSLSDALISLQMVYPRRNLSADQWRNAQLLSLISAPSTMLNPAQSDTMPCEYLSLDAMEKWIIFGFILCHGMLNTEATALNLWKLALQSSSCLSLFRDEVFHIHKAAEDLFVNIRGYNKRINDIRECKEAAVSHAGSMHRERRKFLRSALKELATVLSDQPGLLGPKALFVFMALSFARDEIIWLLRHADNMPKKSADDFIDKHIAELIFYMEELRAHVRKYGPVMQRYYVQYLSGFDAVVLNELVQNLSVCPEDESIIMSSFVNTMTSLSVKQVEDGEVFDFRGMRLDWFRLQAYTSVSKASLSLADHRELGKMMNTIIFHTKMVDSLVEMLVETSDLSIFCFYSRAFEKMFQQCLELPSQSRYSIAFPLLCTHFMSCTHELCPEERHHIGDRSLSLCNMFLDEMAKQARNLITDICTEQCTLSDQLLPKHCAKTISQAVNKKSKKQTGKKGEPEREKPGVESMRKNRLVVTNLDKLHTALSELCFSINYVPNMAVWEHTFTPREYLTSHLEIRFTKSIVGMTMYNQATQEIAKPSELLTSVRAYMTVLQSIENYVQIDITRVFNNVLLQQTQHLDSHGEPTITSLYTNWYLETLLRQVSNGHIAYFPAMKAFVNLPTENELTFNAEEYSDISEMRSLSELLGPYGMKFLSESLMWHISSQVAELKKLVVENVDVLTQMRTSFDKPDQMAALFKRLSSVDSVLKRMTIIGVILSFRSLAQEALRDVLSYHIPFLVSSIEDFKDHIPRETDMKVAMNVYELSSAAGLPCEIDPALVVALSSQKSENISPEEEYKIACLLMVFVAVSLPTLASNVMSQYSPAIEGHCNNIHCLAKAINQIAAALFTIHKGSIEDRLKEFLALASSSLLKIGQETDKTTTRNRESVYLLLDMIVQESPFLTMDLLESCFPYVLLRNAYHAVYKQSVTSSA
Take B2: the binding entry is “no binding” in experiment [3], “binds” in [10] and “no binding” in experiment [9].
